Source: PubChem BioAssay AID1645882 (National Center for Advancing Translational Sciences (NCATS), 2021)
Out of some 16,000 compounds screened, about 120 (0.75%) were called active. Inconclusive results (about 4%) are left out. The call rests on the fitted dose curve; in most records, active means well fitted inhibition curve with a large enough effect; inconclusive means small, poorly fitted or top-dose-only effect; inactive means no such curve, though single readings can be large or run the other way. Some of the results follow.

target: Rap guanine nucleotide exchange factor 3 (Homo sapiens) (UniProt O95398); assay: Validation qHTS for antagonist of cAMP-regulated guanine nucleotide exchange factor 3 (EPAC1); conditions: EPAC1 Rap1B-BODIPY-GDP exchange, fluorescence; series mostly up to 150 µM; activity change, negative = inhibition: at the top concentration;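 further: plate controls were DMSO for no effect and ATA control for full effect; nearly all actives have a fitted effect of over 75% in size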
Procedure, shortened: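 EPAC1 (100 nM) mixed with 250 nM RAP1B-BODIPY-GDP and 50 uM GDP; compounds in concentration series, 5 min at room temperature. Fluorescence (ex 480/em 540 nm) read every 5 min for 30 min; normalized to ATA control and DMSO.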

Sequence of UniProt O95398 (O95398 whole entry, looked up): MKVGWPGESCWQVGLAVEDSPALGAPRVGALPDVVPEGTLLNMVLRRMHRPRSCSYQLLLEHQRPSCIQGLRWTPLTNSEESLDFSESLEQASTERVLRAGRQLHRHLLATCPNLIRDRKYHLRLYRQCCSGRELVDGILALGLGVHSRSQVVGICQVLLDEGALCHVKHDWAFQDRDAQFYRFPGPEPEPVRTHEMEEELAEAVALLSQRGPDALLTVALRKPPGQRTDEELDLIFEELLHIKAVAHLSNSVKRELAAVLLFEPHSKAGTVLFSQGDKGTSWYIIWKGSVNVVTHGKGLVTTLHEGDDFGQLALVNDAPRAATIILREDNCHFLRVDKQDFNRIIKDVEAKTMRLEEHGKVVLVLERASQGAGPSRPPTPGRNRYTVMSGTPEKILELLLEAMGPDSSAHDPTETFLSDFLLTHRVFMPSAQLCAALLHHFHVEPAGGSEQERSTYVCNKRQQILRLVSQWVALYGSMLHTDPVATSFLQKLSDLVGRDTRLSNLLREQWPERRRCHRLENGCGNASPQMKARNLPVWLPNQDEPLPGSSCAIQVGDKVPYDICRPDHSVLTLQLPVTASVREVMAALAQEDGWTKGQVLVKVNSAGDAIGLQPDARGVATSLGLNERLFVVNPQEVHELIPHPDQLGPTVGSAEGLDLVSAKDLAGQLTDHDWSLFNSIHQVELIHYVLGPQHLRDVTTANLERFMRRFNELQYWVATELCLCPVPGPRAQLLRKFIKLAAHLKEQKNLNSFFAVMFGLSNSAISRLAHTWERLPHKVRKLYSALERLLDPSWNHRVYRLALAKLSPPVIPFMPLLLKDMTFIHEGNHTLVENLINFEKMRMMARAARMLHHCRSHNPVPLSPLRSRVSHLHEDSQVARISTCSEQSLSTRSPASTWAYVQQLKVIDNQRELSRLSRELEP

Activity change, negative = inhibition, inactive:
N#CCCn1c(=O)c(CCc2ccccc2)nc2cnc(OCc3ccccc3)nc21 -7.59%
Cc1cc(C(=O)Nc2cccc(-c3nc(CNC(=O)c4ccc[n+]([O-])c4)c(C)o3)c2)c(C)o1 5.97%
O=C(c1ccc2c(c1)OCO2)N1CCCCC1 1.3%
N#CCCn1c(=O)c(-c2cccs2)nc2cnc(N3CCNCC3)nc21 18%
NCCCCCCNS(=O)(=O)c1cccc2ccccc12 -2.47%
O=C(Oc1ccccc1)c1ccccc1O 9.84%
O=c1c(-c2ccc(Cl)cc2)nc2cnc(N3CCNCC3)nc2n1Cc1ccc(F)cc1 3.55%
CC(=O)OCC(=O)[C@@]1(O)[C@H](C)C[C@H]2[C@@H]3CCC4=CC(=O)C=C[C@]4(C)[C@@]3(F)[C@@H](O)C[C@@]21C
COc1ncnc(NS(=O)(=O)c2ccc(N)cc2)c1OC -6.57%
O=C(C[n+]1cccc(Br)c1)c1ccc(-c2ccccc2)cc1 0.0132%
COc1ccc(C(=O)c2ccccc2)c(O)c1
COc1ccc(C(=O)NCC2Cc3cc(C)cc(-c4cc(C(C)=O)ccc4F)c3O2)c(OC)c1OC (centres undefined) 11.9%
c1cncc(-c2nc(NCCN3CCOCC3)c3ccccc3n2)c1 15.8%
CC1(O)/C=C\C=C(\CO)C2CC(C)(C)C2(O)CC1 (centres undefined) 21.8%
CCC(C(N)=O)c1ccccc1 (centres undefined) -12.7%
O=c1c(-c2ccc(Cl)cc2)nc2cnc(N3CCNCC3)nc2n1-c1ccccc1 4.92%
CCOc1cc(CC(=O)N[C@@H](CC(C)C)c2ccccc2N2CCCCC2)ccc1C(=O)O 19.4% [at 75.8 µM]
COc1cc2c(cc1OC)C1(O)C(=O)c3ccc(O)c(C(=O)O)c3OC1CO2 (centres undefined) 2.39%
Nc1ccnc2c1ncn2[C@@H]1O[C@H](CO)[C@@H](O)[C@H]1O 18.8%
COc1cc(/C=C/CN2CCOc3ccc(C(O)c4cccnc4)cc3C2)ccc1O (centres undefined) -2.91%
COc1ccccc1-c1cc(Nc2ccn[nH]2)ncn1 -1.49%
COc1ccc2c(c1)CCc1cnc(-n3ncc(C(=O)N(C)CCc4ccccn4)c3C)nc1-2 15.1%
N#Cc1cccc(-c2ccc3ncnc(NCc4cccs4)c3c2)c1 12.7%
CCOC(=O)C1CCCCN1Cc1nc(N2CCN(C(C)=O)CC2)c2ccccc2n1 (centres undefined) 7.47%
CC1(C)CC23C(=O)CCC(O)C2(C)CCC13 (centres undefined) 20.3%
Cc1nc(C)c(CC(=O)N2CCOc3ccc(CN4CCN(c5ccccn5)CC4)cc3C2)s1 9.45%
COc1cccc(-c2ccc3ncnc(NCCNC(C)=O)c3c2)c1 5.55%
Cc1cc(OCCOCC[N+](C)(C)Cc2ccccc2)ccc1C(C)(C)CC(C)(C)C 21%
Cc1nc2cnc(Nc3ccccc3)nc2n(CCc2ccccc2)c1=O 2.49%
